{
  "source": "patent US8076375B2",
  "about": "(priority 2005, dated 2011)",
  "origin": "cited, not measured here",
  "details": "50 μM, three cell-based assays; cited from earlier work",
  "data": [
    {"smiles": "O=C(O)c1cc2c(cc1S(=O)(=O)O)C1C(C3C2C2(Cl)C(Cl)=C(Cl)C3(Cl)C2(Cl)Cl)C2(Cl)C(Cl)=C(Cl)C1(Cl)C2(Cl)Cl", "note": "(stereo not shown) [Compound 270718-R, 3-sulfo-2-naphthoic acid-bis(hexachlorocyclopentadiene) adduct]", "values": [
      {"measurement": "Growth inhibition in NCI/NIH-conducted cell assays", "value": "No growth inhibition"}
    ]}
  ]
}
